# Over roughly 81,000 sequences, “one-hybrid fitness for binding parS DNA” has its median near -0.17; the highest 2% begin near 0.51. Some of the results follow.
# B1: Caulobacter ParB omega fusion; a variant is named by its letters at X, in order, B8GW30 (parent)
# chain: MESVVVGEPGMSEGRRGLGRGLSALLGEVDAAPAQAPGEQLGGSREAPIEILQRNPDQPRRTFREEDLEDLSNSIREKGVLQPILVRPSPDTAGEYQIVAGERAWRAAQRAGLKTVPIMVRELDDLAVLEIGIIENVQRADLNVLEEALSYKVLMEKFERTQENIAQTIGKSXSHVANXMRLLXLPDEVQSYLVSGELTAXHARAIAAAADPVALAKQIIEGGLSVRETEALARKAPNLSAGKSKGGRPPRVKDTDTQALESDLSSVLGLDVSIDHRGSTGTLTITYATLEQLDDLCNRLTRGI
# Variants of: B1
# Assay: one-hybrid fitness for binding parS DNA (scaled: cognate 1, non-cognate 0); higher = stronger binding
# Details: with parS DNA site
# Procedure, shortened: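 In E. coli USO, a HIS3 reporter with its site placed 19 bp from the promoter was used to select Caulobacter ParB variants randomised at four specificity codons. Growth lasted 48 hours at 37°C on histidine-free M9 containing 0.1 mM IPTG and 5 mM 3-AT. Fitness was taken as the log change in variant-to-wild-type read ratio from Illumina sequencing of pre- and post-selection plasmids, rescaled between the non-cognate and cognate sites.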
row,Variant,one-hybrid fitness for binding parS DNA
1,ACIG,≤ 0.2
2,KDRC,≤ 0.2
3,CCKV,≤ 0.2
4,WCCR,≤ 0.2
5,AGEN,≤ 0.2
6,MLNF,≤ 0.2
7,SHPS,≤ 0.2
8,LSRR,≤ 0.2
9,KVMN,≤ 0.2
10,DSLY,≤ 0.2
11,NNKR,≤ 0.2
12,FRPW,≤ 0.2
13,VHFT,≤ 0.2
14,HVKT,≤ 0.2
15,GHLN,≤ 0.2
16,QMWM,≤ 0.2
17,TGAG,≤ 0.2
18,KVLC,≤ 0.2
19,MYMA,≤ 0.2
20,DYMF,≤ 0.2
21,ARTE,≤ 0.2
22,TFAS,≤ 0.2
23,EVDR,≤ 0.2
24,RTYA,0.606
25,DSFY,≤ 0.2
26,AMNW,≤ 0.2

row,Variant,one-hybrid fitness for binding parS DNA
1,HHSC,≤ 0.2
2,TAQR,≤ 0.2
3,SITW,≤ 0.2
4,MVNM,≤ 0.2
5,AFAT,≤ 0.2
6,NAHT,≤ 0.2
7,IKAY,≤ 0.2
8,TTQK,≤ 0.2
9,SKFV,≤ 0.2
10,TILM,≤ 0.2
11,SNSQ,≤ 0.2
12,APFT,≤ 0.2
13,RSKN,0.443
14,ILEV,≤ 0.2
15,QQSE,≤ 0.2
16,SVGM,≤ 0.2
17,TGCR,≤ 0.2
18,INRT,≤ 0.2
19,EALT,≤ 0.2
20,ALSK,≤ 0.2
21,QSSI,≤ 0.2
22,FWYS,≤ 0.2
23,HDHI,≤ 0.2
24,WHHT,≤ 0.2
25,QAVT,≤ 0.2
26,RWWN,≤ 0.2

row,Variant,one-hybrid fitness for binding parS DNA
1,KALA,≤ 0.2
2,LYMW,≤ 0.2
3,SESF,≤ 0.2
4,VFHG,≤ 0.2
5,PLEC,≤ 0.2
6,PPGW,≤ 0.2
7,YKVR,≤ 0.2
8,PWPP,≤ 0.2
9,KPRG,≤ 0.2
10,QHDW,≤ 0.2
11,WYMG,≤ 0.2
12,IHVR,≤ 0.2
13,SMKA,≤ 0.2
14,RCDW,≤ 0.2
15,YYVT,≤ 0.2
16,SYRN,≤ 0.2
17,CDCG,≤ 0.2
18,PRHL,≤ 0.2
19,HRNT,≤ 0.2
20,NMAT,≤ 0.2
21,NHRG,≤ 0.2
22,MPFH,≤ 0.2
23,QSCK,≤ 0.2
24,VIYD,≤ 0.2
25,GMIG,≤ 0.2
26,MRTC,≤ 0.2

row,Variant,one-hybrid fitness for binding parS DNA
1,TWSL,≤ 0.2
2,CNDR,≤ 0.2
3,QAAE,≤ 0.2
4,HKQM,≤ 0.2
5,QFVT,≤ 0.2
6,PHNL,≤ 0.2
7,TKST,≤ 0.2
8,AGYV,≤ 0.2
9,NHDQ,≤ 0.2
10,DVNP,≤ 0.2
11,RASY,0.459
12,QAKV,≤ 0.2
13,PKDR,≤ 0.2
14,TTRF,≤ 0.2
15,LFKV,≤ 0.2
16,YCER,≤ 0.2
17,RWRS,0.955
18,HAPL,≤ 0.2
19,NMGD,≤ 0.2
20,LEFG,≤ 0.2
21,TPLN,≤ 0.2
22,QPGT,≤ 0.2
23,VCAF,≤ 0.2
24,LLPV,≤ 0.2
25,NGTG,≤ 0.2
26,VRKN,≤ 0.2

row,Variant,one-hybrid fitness for binding parS DNA
1,GAEM,≤ 0.2
2,CVSL,≤ 0.2
3,SATY,≤ 0.2
4,KDDG,≤ 0.2
5,PIVV,≤ 0.2
6,AGEF,≤ 0.2
7,TTFW,≤ 0.2
8,YSHM,≤ 0.2
9,KDGR,≤ 0.2
10,VSDG,≤ 0.2
11,ATCM,≤ 0.2
12,MFVY,≤ 0.2
13,SLPV,≤ 0.2
14,NRTV,≤ 0.2
15,IAAG,≤ 0.2
16,HRKD,≤ 0.2
17,SKNP,≤ 0.2
18,HMKA,≤ 0.2
19,LHNI,≤ 0.2
20,TCSP,≤ 0.2
21,DDTY,≤ 0.2
22,MTQS,≤ 0.2
23,QPYG,≤ 0.2
24,SVAW,≤ 0.2
25,RCGK,≤ 0.2
26,CVKV,≤ 0.2

row,Variant,one-hybrid fitness for binding parS DNA
1,ELHT,≤ 0.2
2,IDLL,≤ 0.2
3,WWNR,≤ 0.2
4,GKCG,≤ 0.2
5,NTNI,≤ 0.2
6,AGVL,≤ 0.2
7,QCMM,≤ 0.2
8,APYW,≤ 0.2
9,HRHC,0.283
10,RPRC,≤ 0.2
11,CYTS,≤ 0.2
12,KMNT,≤ 0.2
13,DETF,≤ 0.2
14,IDQS,≤ 0.2
15,CHRK,≤ 0.2
16,PKPN,≤ 0.2
17,SKCI,≤ 0.2
18,SFQS,≤ 0.2
19,LEWR,≤ 0.2
20,HGTL,≤ 0.2
21,SDGL,≤ 0.2
22,AEVR,≤ 0.2
23,YGRK,≤ 0.2

# Reference: a collection of fitness landscapes (doi:10.1016/j.celrep.2020.107928)
